Data published in publication PMC12167477, “Setdb1 and Atf7IP form a hetero-trimeric complex that blocks Setdb1 nuclear export” (The Journal of Biological Chemistry, 2025).
Results are given in words; binding and its absence hold for the method and conditions named. In cells and extracts the contact can be indirect. Some entries that bind do so weakly or less than the wild type. Sequences can lack the tags named with a protein.

Columns and labels:
Assay in all cases: co-IP; HEK293 cells transiently co-transfected; lysis in 30 mM HEPES pH 7.9, 400 mM NaCl, 10% glycerol, 0.05% Tween-20, 2 mM BME, Benzonase; anti-DYKDDDDK magnetic beads, FLAG peptide elution, blots with anti-FLAG, anti-HA, anti-Myc
[1] = target: full-length Atf7IP, FLAG- or Myc-tagged (human) (UniProt Q6VMQ6)
[2] = target: T1, Flag-Atf7IP(836-1270) (human) (UniProt Q6VMQ6)
T1 sequence: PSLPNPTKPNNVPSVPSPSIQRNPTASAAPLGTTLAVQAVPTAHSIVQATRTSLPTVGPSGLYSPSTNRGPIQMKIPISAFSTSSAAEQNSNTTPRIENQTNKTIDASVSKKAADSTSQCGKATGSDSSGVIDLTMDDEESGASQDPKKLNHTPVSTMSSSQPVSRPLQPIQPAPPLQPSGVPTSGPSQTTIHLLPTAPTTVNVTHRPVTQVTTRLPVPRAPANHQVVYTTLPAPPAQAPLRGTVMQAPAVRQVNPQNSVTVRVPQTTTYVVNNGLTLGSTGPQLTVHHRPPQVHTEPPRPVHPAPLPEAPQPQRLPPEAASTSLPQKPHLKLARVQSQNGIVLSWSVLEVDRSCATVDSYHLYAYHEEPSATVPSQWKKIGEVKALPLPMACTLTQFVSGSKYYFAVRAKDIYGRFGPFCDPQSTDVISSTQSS

[3] = target: T2, Flag-Atf7IP(422-841) (human) (UniProt Q6VMQ6)
T2 sequence: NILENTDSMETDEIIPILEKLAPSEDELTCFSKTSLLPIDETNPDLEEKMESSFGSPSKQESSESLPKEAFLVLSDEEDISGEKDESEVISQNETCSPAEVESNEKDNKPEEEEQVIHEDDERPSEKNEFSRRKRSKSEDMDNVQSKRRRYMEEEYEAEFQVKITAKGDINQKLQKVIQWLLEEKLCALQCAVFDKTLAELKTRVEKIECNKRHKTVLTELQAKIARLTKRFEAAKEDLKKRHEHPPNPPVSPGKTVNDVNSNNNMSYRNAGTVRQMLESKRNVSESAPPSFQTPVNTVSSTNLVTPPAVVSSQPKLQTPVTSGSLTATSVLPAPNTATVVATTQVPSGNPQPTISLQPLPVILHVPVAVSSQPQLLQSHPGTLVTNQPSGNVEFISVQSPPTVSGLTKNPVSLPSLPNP

B1: full-length Atf7IP, FLAG- or Myc-tagged (protein, UniProt Q6VMQ6 1-1270)
chain: MDSLEEPQKKVFKARKTMRVSDRQQLEAVYKVKEELLKTDVKLLNGNHENGDLDPTSPLENMDYIKDKEEVNGIEEICFDPEGSKAEWKETPCILSVNVKNKQDDDLNCEPLSPHNITPEPVSKLPAEPVSGDPAPGDLDAGDPASGVLASGDSTSGDPTSSEPSSSDAASGDATSGDAPSGDVSPGDATSGDATADDLSSGDPTSSDPIPGEPVPVEPISGDCAADDIASSEITSVDLASGAPASTDPASDDLASGDLSSSELASDDLATGELASDELTSESTFDRTFEPKSVPVCEPVPEIDNIEPSSNKDDDFLEKNGADEKLEQIQSKDSLDEKNKADNNIDANEETLETDDTTICSDRPPENEKKVEEDIITELALGEDAISSSMEIDQGEKNEDETSADLVETINENVIEDNKSENILENTDSMETDEIIPILEKLAPSEDELTCFSKTSLLPIDETNPDLEEKMESSFGSPSKQESSESLPKEAFLVLSDEEDISGEKDESEVISQNETCSPAEVESNEKDNKPEEEEQVIHEDDERPSEKNEFSRRKRSKSEDMDNVQSKRRRYMEEEYEAEFQVKITAKGDINQKLQKVIQWLLEEKLCALQCAVFDKTLAELKTRVEKIECNKRHKTVLTELQAKIARLTKRFEAAKEDLKKRHEHPPNPPVSPGKTVNDVNSNNNMSYRNAGTVRQMLESKRNVSESAPPSFQTPVNTVSSTNLVTPPAVVSSQPKLQTPVTSGSLTATSVLPAPNTATVVATTQVPSGNPQPTISLQPLPVILHVPVAVSSQPQLLQSHPGTLVTNQPSGNVEFISVQSPPTVSGLTKNPVSLPSLPNPTKPNNVPSVPSPSIQRNPTASAAPLGTTLAVQAVPTAHSIVQATRTSLPTVGPSGLYSPSTNRGPIQMKIPISAFSTSSAAEQNSNTTPRIENQTNKTIDASVSKKAADSTSQCGKATGSDSSGVIDLTMDDEESGASQDPKKLNHTPVSTMSSSQPVSRPLQPIQPAPPLQPSGVPTSGPSQTTIHLLPTAPTTVNVTHRPVTQVTTRLPVPRAPANHQVVYTTLPAPPAQAPLRGTVMQAPAVRQVNPQNSVTVRVPQTTTYVVNNGLTLGSTGPQLTVHHRPPQVHTEPPRPVHPAPLPEAPQPQRLPPEAASTSLPQKPHLKLARVQSQNGIVLSWSVLEVDRSCATVDSYHLYAYHEEPSATVPSQWKKIGEVKALPLPMACTLTQFVSGSKYYFAVRAKDIYGRFGPFCDPQSTDVISSTQSS
How did the binding [1] turn out when B1 was run?
The binding was “binds”.

What about the binding [2] of the same binder?
Its binding is “no binding”.

What about the binding [3] of the same binder?
Its binding is “binds”.
